Read counts are not given, so values of variants with three or more changes are uncertain.

To fix the notation:
B1: LINE1-mini (parent)
chain: GGCAGAGCUCAACACAGCGUGGCAAAGUGGCUGUGGCUAGACUGCC

Variants of B1 are the subject of this series. Kind of series: self-cleavage, relative activity (ratio to wild type); higher = more cleavage; in vitro, sequencing; the parent is a self-cleaving ribozyme.
Consider G2C G27C U32A C42A, for which the self-cleavage was found to be 0.01.
The result for G2C G17A C23U G36A reads 0.03; that for G2C C10A A39U, 0.07; that for G2C C23A G29C A39C, 0.13.
The result for G2C G33U G36C C37A A39G reads 0.12.
For the variant G2C A16G G21A C23A G35A C37U, the self-cleavage is 0.04.
Take G2C C15A A26G: the self-cleavage stood at 0.03.
With G2C A16G G21C G30A, the self-cleavage amounted to 0.53.
As for G2C G17U G33A G35U G44U C45U, the self-cleavage is 0.29.
With G2C G5U A11U C13A, the self-cleavage amounted to 0.02.
As for G2C G17A G22U, the self-cleavage stood at 0.12.
In the case of G2C C3G G22C A24G A26U, the self-cleavage came to 0.09.
Regarding G2C U9G U28C, the self-cleavage was 0.1.
G2C C10A A11C G22U G35A: the self-cleavage came to 0.03.
In the case of G2C C8A C13A G35U C45A, the self-cleavage stood at 0.19.
As to G2C G29U G33C, the self-cleavage was found to be 0.04.
For the variant G2C A24G G36A, the self-cleavage was 0.12.
Turning to G2C C18G C46G, the self-cleavage worked out at 0.1.
In the case of G2C C31G C37A, the self-cleavage was found to be 0.02.
Under G2C G7A C8U A12U G35U stands 0.03; under G2C U9A G36A, 0.2.
Regarding G2C C3A U28G, the self-cleavage is 0.09.
As for G2C C8U G30U C42U, the self-cleavage came out at 0.09.
Take G2C U9G U20G A39C A41C: the self-cleavage was found to be 0.23.
G2C C13G G35U: the self-cleavage came to 0.04.
For G2C G19U C31G, the self-cleavage stood at 0.07.
Regarding G2C G5C C18A A25U C45A, the self-cleavage was 0.01.
Consider G2C G22A G29A C31A, for which the self-cleavage was 0.32.
For G2C G7A G27C U38A, the self-cleavage was found to be 0.02.
The result for G2C C10U U38A reads 0.01; that for G2C C23A G30A G33A, 0.1; that for G2C C23G A39U, 0.09.
As to G2C U9C A12C A26C G30U C31A, the self-cleavage stood at 0.05.
Under G2C G27C G36A stands 0.22; under G2C A25U U28A, 0.05.
As for G2C C3U G17U A26G, the self-cleavage came to 0.08.
With G2C G21U G30C G44A, the self-cleavage was found to be 0.73.
For G2C C13U G27C G33A A39G C46U, the self-cleavage is 0.08.
As to G2C C8U G40U, the self-cleavage came to 0.32.
On to G2C G21A G29A, for which the self-cleavage was 0.08.
For the variant G2C A25C U38G G40A, the self-cleavage is 0.04.
Consider G2C C3A A6C A12C A24C C42G, for which the self-cleavage was found to be 0.01.
Take G2C C23U G33U G40C C42G: the self-cleavage turned out to be 0.03.
As to G2C C8G C15A G17U, the self-cleavage came out at 0.07.
As to G2C C3A G7C C8G A39G C42U C45A, the self-cleavage amounted to 0.01.
For G2C C8G G40U A41G, the self-cleavage turned out to be 0.01.
Consider G2C A25U C31U, for which the self-cleavage is 0.12.
Turning to G2C C15G G44U C46G, the self-cleavage was found to be 0.01.
Consider G2C C18G U20G C37U G40C C42U, for which the self-cleavage is 0.01.
Consider G2C G7U G36U, for which the self-cleavage was 0.03.
Take G2C C31A G35A: the self-cleavage worked out at 0.02.
For G2C C3G G17C G27U G30U, the self-cleavage turned out to be 0.07.
As for G2C C3A G36A G44U, the self-cleavage was found to be 0.1.
On to G2C C15U C23U, for which the self-cleavage stood at 0.02.
As for G2C C8G G33U G35A G40C C45U, the self-cleavage was 0.02.
With G2C U9G A24U A39G C45G, the self-cleavage is 0.1.
As for G2C C13A G17C A24U A26G C42A, the self-cleavage was 0.23.
The result for G2C C3U C13U A16U G36C C37A U43C G44U C45A reads 0.02; that for G2C G33U G35U, 0.
Consider G2C G19U G21A, for which the self-cleavage was determined as 1.22.
Under G2C C13G C15G G22A G29C U32C G36C stands 0; under G2C A24G G35U A41U, 0; under G2C A16U A26C, 0.03.
In the case of G2C G17A U43A, the self-cleavage was 0.
For the variant G2C C15G G44A, the self-cleavage stood at 0.
Take G2C C8U A11U U34G: the self-cleavage is 0.04.
For G2C C18G G19C U20C, the self-cleavage turned out to be 0.14.
For G2C C3U A6C, the self-cleavage turned out to be 0.05.
Consider G2C C3A G30U, for which the self-cleavage is 0.68.
As to G2C G19U G33A, the self-cleavage is 0.14.
Regarding G2C U9A U32G G35U, the self-cleavage came out at 0.03.
Regarding G2C C15A U34G A39C G44U, the self-cleavage is 0.01.
Consider G2C G19A G40U, for which the self-cleavage worked out at 0.07.
On to G2C G22U A41U G44C C46U, for which the self-cleavage is 0.07.
G2C C3A A26C: the self-cleavage is 0.05.
As to G2C C18U G27U A39U, the self-cleavage was 0.08.
On to G2C A26U G44C, for which the self-cleavage is 0.14.
On to G2C C15U U32G G33C U34G C46A, for which the self-cleavage is 0.01.
On to G2C C8G G29U, for which the self-cleavage amounted to 0.05.
On to G2C C8A G22A A26C G36U, for which the self-cleavage was 0.17.
The result for G2C G7U C45G reads 0.01; that for G2C C3A C31A, 0.05.
For the variant G2C C3G G22U G33A, the self-cleavage is 0.08.
For G2C C23A G30U G33U, the self-cleavage turned out to be 0.04.
As to G2C C10G G36A G44U, the self-cleavage was determined as 0.
Under G2C G19A U20G G21C stands 0.08.
In the case of G2C G7U G27A G33U, the self-cleavage was found to be 0.11.
Take G2C G35C G40U: the self-cleavage stood at 0.32.
On to G2C C10U U32G A41U, for which the self-cleavage was found to be 0.01.
Take G2C G5U C8A A14C A24C: the self-cleavage turned out to be 0.1.
For G2C G7A A16U C37A G44C C46U, the self-cleavage is 0.06.
On to G2C G7C U20A C23A, for which the self-cleavage amounted to 0.01.
Consider G2C C3U U9G U28A, for which the self-cleavage was determined as 0.04.
As for G2C C13U C15A G35C A41G G44U, the self-cleavage came to 0.01.
In the case of G2C G7U C42G, the self-cleavage came to 0.
On to G2C C8G G36A C46A, for which the self-cleavage is 0.04.
Regarding G2C A16G G19A G22C G36A, the self-cleavage was 0.02.
On to G2C C23U C45G C46U, for which the self-cleavage came to 0.32.
On to G2C G21A C45A, for which the self-cleavage was 0.09.
Turning to G2C C13A C18G A39U C45U, the self-cleavage was determined as 0.13.
On to G2C G17C G40U A41C, for which the self-cleavage was 0.66.
Under G2C C3A A6U stands 1.49.
As to G2C A24U G30U U32G, the self-cleavage came out at 0.04.
Turning to G2C C13U A26G, the self-cleavage is 0.02.
Take G2C C42A U43A C46A: the self-cleavage is 0.01.
G2C G5U G35U: the self-cleavage worked out at 0.04.
Under G2C G22U G27C G33U U34G G36A stands 0.04.
Regarding G2C C8U G29U G44C, the self-cleavage amounted to 0.89.
With G2C C8U C18U G33U C42U C46U, the self-cleavage was determined as 0.05.
Take G2C C23U A26G: the self-cleavage is 0.04.
For G2C G27A G36C, the self-cleavage came to 0.2.
As to G2C C23G A25U G27U G29A C46U, the self-cleavage was 0.07.
Consider G2C C13G G19A C23G G35A C45U, for which the self-cleavage was 0.58.
Under G2C C15A C18G stands 0.01.
The result for G2C C13G C15A G17A reads 0.02; that for G2C C3G C13G G17C G22A G27U C31U, 0.04; that for G2C C23G C31U C37G A39G C42U, 0.02.
G2C A16U C46U: the self-cleavage was 0.09.
Consider G2C C15G C31A, for which the self-cleavage turned out to be 0.02.
On to G2C A24U G27A U34C C46A, for which the self-cleavage was 0.08.
G2C G27A G44C: the self-cleavage worked out at 0.03.
In the case of G2C C15A G33U A41G, the self-cleavage is 0.07.
In the case of G2C C15G G35C A39C, the self-cleavage stood at 0.02.
For the variant G2C A26C G29U, the self-cleavage was 0.07.
G2C U9G C15G C23U A41G: the self-cleavage came to 0.1.
On to G2C G5U C10A G21U, for which the self-cleavage is 0.04.
The result for G2C C15U G27U G29U reads 0.11.
The result for G2C C18A G33U C45U reads 0.01; that for G2C C15A C46U, 0.04; that for G2C C10A A14G G19A A25U G33U A39U, 0.
G2C C3A A4C C10U U20G: the self-cleavage is 0.09.
The result for G2C G21U A25G G33A reads 0.04; that for G2C G5U A6G C31U G40A C45U, 0.01.
G2C G19A G30A C31U U34A U38A U43C C45U: the self-cleavage came out at 0.04.
Regarding G2C G7A A24C A41U, the self-cleavage was found to be 0.08.
For the variant G2C U9G C31U C46U, the self-cleavage was 0.03.
For G2C C15G G33U, the self-cleavage is 0.07.
On to G2C C3A G27U U28A G30C U43G, for which the self-cleavage came out at 0.
On to G2C G5C A11C C13G G22U U28A, for which the self-cleavage worked out at 0.01.
With G2C C13A G22A G29C C37A C46A, the self-cleavage is 0.09.
With G2C C23G A26G G35C, the self-cleavage is 0.03.
On to G2C A26G G36U, for which the self-cleavage worked out at 0.09.
G2C C3G C8U G27A A39C C45U: the self-cleavage was 0.04.
For G2C G5C C18U, the self-cleavage is 0.01.
Regarding G2C C3A G5U C10U A11C, the self-cleavage is 0.
Under G2C C15U G29U G33A stands 0.71; under G2C G17U G19A A26C, 0.36.
In the case of G2C C3G C15U G33U, the self-cleavage was 0.04.
On to G2C C3G C45A, for which the self-cleavage is 0.06.
For G2C G7A A12G U32A, the self-cleavage came out at 0.25.
With G2C C23A C37A G40U, the self-cleavage came out at 0.02.
Consider G2C C13G A16U, for which the self-cleavage amounted to 0.11.
For the variant G2C G22C G30A, the self-cleavage was found to be 0.29.
For the variant G2C C10A G35U G40U C42A, the self-cleavage worked out at 0.
Regarding G2C C3U G7C A14U A41G, the self-cleavage worked out at 0.19.
In the case of G2C C10A A14G C15A C18U G29U G30A C45G, the self-cleavage was determined as 0.02.
G2C G7C A41C G44A C46U: the self-cleavage amounted to 0.05.
With G2C C3A A11U U32G G35U, the self-cleavage was found to be 0.07.
In the case of G2C C3U C18A G36U, the self-cleavage came to 0.07.
Under G2C A25G U32A C42G G44C stands 0.01; under G2C G19C C31G, 0.02.
Consider G2C G5A C18A U20G G30A C42U, for which the self-cleavage stood at 0.01.
For the variant G2C U9A C13U G30C, the self-cleavage worked out at 0.09.
On to G2C A26U U38G, for which the self-cleavage worked out at 0.02.
Under G2C G21U C23A G27A C42U stands 0.1; under G2C C10U A26U G30U, 0.06.
On to G2C C18A U20C G29U, for which the self-cleavage stood at 0.38.
